In patent publication US20260226127A1 (ASCENDIS PHARMA ONCOLOGY DIVISION A S, published 2026) one finds Kd data, which are given here for one molecule.

Broadly, the Kd is a measure of binding affinity in units of concentration.

In assay [1] the target is T1, IL-2Rαβ complex (Human IL-2 Receptor alpha, Fc-Tag and Human IL-2 Receptor beta, Fc-Tag, mixed and … (human, UniProt P01589 22-240; P14784 27-240).
T1 construct: extracellular domain; Not a covalent heterodimer: the two Fc-tagged subunits were mixed (around 1.33 µg/mL each) and captured together on the anti-human Fc chip; not shown: Fc-Tag of the bought product (Symansis)
T1 sequence (looked up) 1: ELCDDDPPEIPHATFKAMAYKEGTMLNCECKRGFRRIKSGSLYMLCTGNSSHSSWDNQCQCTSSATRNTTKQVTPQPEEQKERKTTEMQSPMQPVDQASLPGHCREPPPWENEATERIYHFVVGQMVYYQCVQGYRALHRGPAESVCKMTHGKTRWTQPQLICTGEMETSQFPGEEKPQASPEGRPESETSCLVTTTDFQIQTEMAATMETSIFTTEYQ
T1 sequence (looked up) 2: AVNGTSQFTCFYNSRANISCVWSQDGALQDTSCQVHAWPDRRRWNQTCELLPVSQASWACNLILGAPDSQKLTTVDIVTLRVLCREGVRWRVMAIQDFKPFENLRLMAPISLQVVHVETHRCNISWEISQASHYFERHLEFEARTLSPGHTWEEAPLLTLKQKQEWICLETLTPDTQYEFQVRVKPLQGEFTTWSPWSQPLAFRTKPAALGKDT
As to the kind of experiment: SPR (Biacore T200), IL-2Rα-Fc and IL-2Rβ-Fc captured together on anti-human Fc CM5 chip, IL-2 compound as analyte, 25 C. As for the experimental part: For the determination of binding kinetics to the IL-2Rαβ complex the following chip preparation was used: Human IL-2 Receptor alpha, Fc-Tag (Symansis, New Zealand) and Human IL-2 Receptor beta, Fc-Tag (Symansis, New Zealand) were mixed and diluted in HBS-EP running buffer (GE Healthcare, 10 mM HEPES, 150 mM NaCl, 3 mM EDTA, 0.05% Surfactant P20, pH 7.4) to around 1.33 μg/mL each and were immobilized at a flow rate of 10 μL/min for 60 s to achieve 360-440 response units (RU).
For kinetic measurements on all three receptor subunit setups, Aldesleukin or biased IL-2 compounds were analysed in multi-cycle kinetics and therefore injected in at least five different concentrations in HBS-EP running buffer at 25° C. (30 μL/min flow rate, 120 s contact time, 600 s dissociation time). Double referenced data (subtracted data from the reference flow cell and the buffer only samples) was, if possible analysed either kinetically via a 1:1 binding model or via steady-state analysis (Biacore T200 Evaluation Software, Version 3.1) to determine KD and if possible, kₐ and kd. Regeneration after each cycle was performed with 3 M MgCl₂ for 30 s at a flow rate of 30 μL/min.
For orientation: In SPR one partner is held on a chip, and binding of the other changes the refractive index at the surface.

Assay [2] concerns the target T2, Human IL-2 Receptor beta, Fc-Tag (human, UniProt P14784 27-240).
T2 construct: extracellular domain; Bought from Symansis, New Zealand; also called IL-2Rβ; CD122
As to the kind of experiment: SPR (Biacore T200), receptor-Fc captured on anti-human Fc CM5 chip, IL-2 compound as analyte, 25 C. As for the experimental part: (§1) For the determination of binding kinetics to IL-2Rα the following chip preparation was used: Human IL-2 Receptor alpha, Fc-Tag (Symansis, New Zealand) was diluted in HBS-EP running buffer (GE Healthcare, 10 mM HEPES, 150 mM NaCl, 3 mM EDTA, 0.05% Surfactant P20, pH 7.4) to approx. 0.67 μg/mL and immobilized at a flow rate of 10 μL/min for 60 s to achieve 80-100 response units (RU).
(§2) For the determination of binding kinetics to IL-2Rβ the following chip preparation was used: Human IL-2 Receptor beta, Fc-Tag (Symansis, New Zealand) was diluted in HBS-EP running buffer (GE Healthcare, 10 mM HEPES, 150 mM NaCl, 3 mM EDTA, 0.05% Surfactant P20, pH 7.4) to around 0.80 μg/mL and immobilized at a flow rate of 10 μL/min for 60 s to achieve 140-180 response units (RU).
(§3) For kinetic measurements on all three receptor subunit setups, Aldesleukin or biased IL-2 compounds were analysed in multi-cycle kinetics and therefore injected in at least five different concentrations in HBS-EP running buffer at 25° C. (30 μL/min flow rate, 120 s contact time, 600 s dissociation time). Double referenced data (subtracted data from the reference flow cell and the buffer only samples) was, if possible analysed either kinetically via a 1:1 binding model or via steady-state analysis (Biacore T200 Evaluation Software, Version 3.1) to determine KD and if possible, kₐ and kd. […]

Assay [3] has as its target T3, Human IL-2 Receptor alpha, Fc-Tag (human, UniProt P01589 22-240).
T3 construct: extracellular domain; Bought from Symansis, New Zealand; also called IL-2Rα; CD25
The description is as above. The procedure:
as §1, §2, §3

Human IL-2 Receptor beta, Fc-Tag, sequence (P14784 whole entry, the tested form may be a part): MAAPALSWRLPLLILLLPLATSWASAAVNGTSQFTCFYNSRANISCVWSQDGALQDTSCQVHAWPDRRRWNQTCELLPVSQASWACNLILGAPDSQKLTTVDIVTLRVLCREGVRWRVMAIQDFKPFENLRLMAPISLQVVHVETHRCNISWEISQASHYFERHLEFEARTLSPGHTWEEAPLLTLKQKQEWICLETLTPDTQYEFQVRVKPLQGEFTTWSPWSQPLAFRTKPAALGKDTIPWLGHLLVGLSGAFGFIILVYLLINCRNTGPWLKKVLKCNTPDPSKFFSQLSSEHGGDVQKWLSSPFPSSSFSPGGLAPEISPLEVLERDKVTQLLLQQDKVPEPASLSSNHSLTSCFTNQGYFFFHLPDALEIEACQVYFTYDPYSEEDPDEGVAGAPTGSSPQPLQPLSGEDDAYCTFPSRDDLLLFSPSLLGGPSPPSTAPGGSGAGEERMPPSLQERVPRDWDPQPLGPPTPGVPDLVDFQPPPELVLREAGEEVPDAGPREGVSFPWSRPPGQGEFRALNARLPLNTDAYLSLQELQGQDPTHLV

B1: Aldesleukin (recombinant human IL-2, desA1, C125S) (ligand)
chain: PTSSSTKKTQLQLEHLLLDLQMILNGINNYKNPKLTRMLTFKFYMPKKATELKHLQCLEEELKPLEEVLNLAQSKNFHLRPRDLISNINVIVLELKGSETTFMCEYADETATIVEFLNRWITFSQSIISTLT
notes: Bought from Peprotech (catalog AF-200-02)
As to B1, the dissociation constant (Kd) in assay [1] amounted to 0.141 nM; in assay [2], 287 nM; in assay [3], 5.65 nM.
